Results as given in PubChem BioAssay AID1745845 (National Center for Advancing Translational Sciences (NCATS), 2022).
In all, about 360,000 compounds went through this assay and about 2,600 (0.72%) were called active. The shares of active, inactive and inconclusive entries below differ from those in the screen. The call rests on the fitted dose curve; in most records, active means well fitted inhibition curve with a large enough effect; inconclusive means small, poorly fitted or top-dose-only effect; inactive means no such curve, though single readings can be large or run the other way. Potencies of inconclusive entries are doubtful fits and often do not repeat.

Experiment: Primary qHTS for Inhibitors of ATXN expression; further: nearly all actives have a fitted effect of over 55% in size
Settings: HEK-293 ATXN2-luciferase reporter, luminescence, 24 h; series mostly up to 57 µM
Summary of the method: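 qHTS (up to 57 uM final) was run with 24 h compound exposure of reporter cells at 37 °C. Each well was multiplexed: SteadyGlo luminescence measured ATXN2-luciferase expression after a fluorogenic Gly-Phe-AFC viability readout (25 uM final).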
Potency means the concentration at half of the fitted maximal effect; tags describe the fitted curve by direction and shape.

Row | Structure (SMILES) | Potency
1 | C=CCc1c(C)nc(SC)nc1Nc1ccc(C(C)=O)cc1 | inactive
2 | Clc1cccc(Cc2c(-c3ccco3)nc3ccc(Br)cn23)c1 | inconclusive: 31.6 µM [inhibitor, single point]
3 | CC1CCN(Cc2c(C(=O)N/N=C/c3cc(Br)ccc3O)nnn2-c2nonc2N)CC1 | inconclusive: 2.82 µM [inhibitor, full curve, poor fit]
4 | Cc1cc(C(=O)COc2cccnc2[N+](=O)[O-])c(C)n1Cc1cccs1 | inconclusive: 2.67 µM [inhibitor, partial curve, poor fit]
5 | COc1ccc(/C=C\C(=O)c2c(O)ccc3c(C)cc(=O)oc23)cc1 | inconclusive: 35.5 µM [inhibitor, partial curve, poor fit]
6 | Oc1c(CN2CCCC2)cc(COCc2ccccc2)c2cccnc12 | inconclusive: 3.98 µM [inhibitor, full curve, poor fit]
7 | COc1cccc(C(=O)NC2=NC(c3ccccc3F)CC(=O)N2)c1 (stereo not given) | inactive
8 | c1csc(CNc2ccn3nc(-c4ccc(OCCN5CCOCC5)cc4)cc3n2)c1 | inconclusive: 25.1 µM [inhibitor, partial curve]
9 | CC(Oc1ccc(C#N)cc1)C(=O)N1CC=C(c2ccccc2)CC1 (stereo not given) | inconclusive: 39.8 µM [inhibitor, single point]
10 | CC(=O)NC(=S)Nc1ccccc1N1CCN(C(=O)c2ccccc2)CC1 | inconclusive: 25.1 µM [inhibitor, single point]
11 | COC(=O)c1ccc(/C(O)=C(\C#N)c2nc3ccccc3s2)cc1 | inactive
12 | CC(=O)Nc1cc(-c2ccccc2N(C)C)cn2c(-c3cccc(C(F)(F)F)c3)cnc12 | inactive
13 | C/C(=N\NC(=O)c1cc(-c2cccnc2)nc2ccccc12)c1ccc(O)cc1O | active: 3.98 µM
14 | COc1ccccc1CNCC(O)Cn1c2ccccc2c2ccccc21 (stereo not given) | inconclusive: 15.8 µM [inhibitor, partial curve, poor fit]
15 | C=CC(=O)Nc1cccc(Sc2nc(Nc3ccc(N4CCN(C)CC4)cc3)ncc2Cl)c1 | inconclusive: 43.2 µM [inhibitor, single point]
16 | O=Cc1cc2ccccc2nc1SCc1ccc(Cl)cc1 | inactive
17 | COc1ccc2c(c1)c1c(c(=O)n(-c3cc(Cl)ccc3C)c(=O)n1Cc1ccc(F)cc1)n2C | inactive
18 | Cc1ccccc1NC(=O)Cn1nc(-c2ccc(Cl)s2)ccc1=O | inactive
19 | CC(=O)NC(c1ccco1)c1ccc2cccnc2c1O (stereo not given) | active: 10 µM
20 | O=C(Nc1cn(-c2ccccc2)nc1-c1ccc(F)cc1)c1ccccc1 | inactive
